The whole screen tested about 150,000 compounds, of which about 540 (0.36%) showed an effect of 50% or more. The list shows a part of the results.

The term % Inhibition denotes the relative decrease from the control value, in per cent.

The test system of this assay is Plasmodium falciparum. As to the kind of experiment: Primary screen in NF54 nanoGlo assay, in single point, at 2uM, 72h; a lower Z score goes with more inhibition. It is filed as functional, Erythrocyte. The settings on record: timepoint 72 hour.
On to `CCN(CC)CCn1c2ccccc2n2cc(-c3ccc(F)cc3)nc12`, for which the “% Inhibition” value worked out at 6% and the Z score was -0.5.
Regarding `COc1cccc(N2CCN(C(=O)C3(C)CC4CC4C3)CC2)c1` (stereo unspecified), the “% Inhibition” value was found to be 27% and the Z score is on record as -3.69.
The like results for `CC(C)S(=O)(=O)N1CC[C@H](Cc2nnc(-c3ccccc3)o2)C1` were, in that order, -5% and 0.67.
The like results for `O=C(NS(=O)(=O)C1CCC(C(F)(F)F)CC1)c1cncc(Cl)c1` (stereo unspecified) were, in that order, 9% and -1.21.
Regarding `COCc1c(C(=O)N2CCN(c3cc(C)ccc3C)CC2)c(=O)cc(C)n1CCCc1ccccc1`, the “% Inhibition” value came out at 4% and the Z score is -0.43.
In the case of `O=C(Nc1cccc2ccccc12)N1CCC[C@H](C2OCCO2)C1`, the “% Inhibition” value worked out at 2% and the Z score was -0.29.
Consider `Cc1n[nH]c2c1CCCN2Cc1nc(C(C)(C)C)no1`, for which the “% Inhibition” value is reported as -17% and the Z score stood at 2.25.
Take `N#Cc1ccc(O)c(-c2ccc(CN3CCOCC3)cc2)c1`: the “% Inhibition” value is on record as 28% and the Z score is -3.13.
`CC(=O)Oc1ccc(N2C(=O)[C@@H]3[C@H](Cc4ccccc4)N[C@]4(C(=O)Nc5c4ccc(Cl)c5C)[C@@H]3C2=O)cc1`: the “% Inhibition” value was -4% and the Z score is recorded as 0.38.
As for `CC(C)c1cc(NC(=O)N(CC(F)F)C(C)C)no1`, the “% Inhibition” value is on record as -3% and the Z score was 0.22.
Consider `C[C@H](NCCCN1CCN(C)CC1)c1c(F)cccc1Cl`, for which the “% Inhibition” value is listed as -15% and the Z score is on record as 2.06.
`Cc1cc(C)n(NC(=O)CCn2nc(C(F)(F)F)c(Br)c2C2CC2)c(=O)c1`: the “% Inhibition” value amounted to 34% and the Z score is listed as -0.45.
Consider `O=C([C@H]1CC(=O)N(C2CCOCC2)C1)N1CCCc2ccccc21`, for which the “% Inhibition” value is -12% and the Z score is 1.79.
On to `Cc1ccc(Cl)cc1NC(=O)c1nnn(CC(=O)NCCc2ccc(Cl)cc2)c1C`, for which the “% Inhibition” value is 30% and the Z score is given as -3.39.
On to `Cc1ccc(C)c(NC(=O)N(C)CCc2noc(C(=O)NCc3ccc4c(c3)OCO4)n2)c1`, for which the “% Inhibition” value was -9% and the Z score amounted to 0.79.
The like results for `CS(=O)(=O)N1C2CCC1CC(NC(=O)c1ccc3c(c1)OCO3)C2` (stereo unspecified) were, in that order, -16% and 2.
The like results for `COC[C@](C)(CC(=O)O)NC(=O)c1scnc1C` were, in that order, -9% and 1.55.
Regarding `CCOC1CCCC1Nc1ccc(N(C)C)cc1C` (stereo unspecified), the “% Inhibition” value is -5% and the Z score is listed as 1.05.
Take `Cc1ccc(S(=O)(=O)N2CCC[C@H](CNC(=O)c3cc(C)n(C)n3)C2)cc1C`: the “% Inhibition” value is listed as -29% and the Z score worked out at 2.54.
For `Fc1cnccc1CN1CC[C@H](n2cc(COCc3ccccc3)nn2)C1`, the “% Inhibition” value was -13% and the Z score amounted to 1.87.
For `CC(Nc1ncccn1)C1CN(Cc2ccccc2)CCO1` (stereo unspecified), the “% Inhibition” value is recorded as -4% and the Z score is reported as 0.32.
Take `COc1ccc(F)c(CN2CCC[C@@]3(CCN(C(=O)c4cc(C)ccc4O)C3)C2)c1`: the “% Inhibition” value is listed as -11% and the Z score is listed as 1.26.
Turning to `Cc1c(Br)c(C(=O)NC(C)(C)C(C)(C)CO)nn1C`, the “% Inhibition” value was determined as 1% and the Z score is -0.13.
For `CC1(C)CN(C(=O)Cn2ccc3cnccc3c2=O)CCO1`, the “% Inhibition” value was found to be 6% and the Z score is given as -0.8.
On to `NC(=O)[C@@H]1C[C@@H](F)CN1C(=O)Cc1ccc(F)cc1F`, for which the “% Inhibition” value is -9% and the Z score was 1.28.
The like results for `CN1CCO[C@H](c2noc(Cc3ccc(F)cc3)n2)C1` were, in that order, -6% and 0.91.
As to `c1cnc(-n2cnc3ccccc32)c(CNCc2ccc3c(c2)CCO3)c1`, the “% Inhibition” value was found to be 4% and the Z score was -0.86.
Consider `C1CCN(c2nc(N3CCCCC3)nc(N3CCCCC3)n2)CC1`, for which the “% Inhibition” value is -4% and the Z score was 0.57.
Regarding `COc1ccc(-c2noc(N(C)CC(=O)Nc3ccc(Oc4ccccc4)cc3)n2)cc1`, the “% Inhibition” value is on record as -5% and the Z score worked out at 0.91.
Taken in the same sequence, the figures for `Cc1cc(F)ccc1S(=O)(=O)N1CCC[C@H](Cc2nc(-c3ccccc3F)no2)C1` were -10% and 1.96.
As to `CN(CCc1ccccc1)C[C@@H]1OC[C@H](NC(=O)Nc2cccnc2)[C@H]1O`, the “% Inhibition” value is recorded as 16% and the Z score was -1.86.
`CCNC(=O)c1ccc(N(C)CCC(F)(F)F)nn1`: the “% Inhibition” value is reported as -11% and the Z score is 1.72.
For `Cc1ccccc1NS(=O)(=O)c1ccc2c(c1)CC(C)(C)OC2`, the “% Inhibition” value was -1% and the Z score is on record as 0.26.
The like results for `CNc1ccccc1C(=O)N1CCO[C@H]2CCC[C@H]21` were, in that order, 8% and -1.56.
For the compound `Cn1cc2ncn([C@H](c3nccn3C)C3CC3)c(=O)c2n1`, the “% Inhibition” value is 3% and the Z score is -0.65.
Turning to `COC[C@H]1CCCN1S(=O)(=O)NC(C)(C)CN1CCOCC1`, the “% Inhibition” value is -12% and the Z score is on record as 2.34.
For `COCC(=O)N[C@@H]1CC[C@@]2(OC)CCN(C(=O)Cc3ccsc3)[C@H]2C1`, the “% Inhibition” value is -10% and the Z score was 1.14.
Taken in the same sequence, the figures for `O=C(N[C@H]1CCNC[C@@H]1O)c1cccc(-c2ccc3c(c2)OC(F)(F)O3)c1` were -16% and 1.84.
Consider `COc1cccc2c1CCN(C(=O)Cn1cnc3c1CCNC31CCOCC1)C2`, for which the “% Inhibition” value is on record as -2% and the Z score is recorded as 0.3.
`O=S(=O)(Cc1ccccc1)Nc1ccc(C#Cc2ccccc2)cc1`: the “% Inhibition” value is on record as 7% and the Z score is given as -0.86.
For `Cc1ccc(F)c(-c2cc(NC(=O)[C@@H]3COCCN3C)[nH]n2)c1`, the “% Inhibition” value was -11% and the Z score came out at 1.8.
For `CCN(CC)C(=O)c1cnc2nc(C)ccc2c1Nc1cccc(C(F)(F)F)c1`, the “% Inhibition” value is on record as -6% and the Z score worked out at 0.97.
Taken in the same sequence, the figures for `Cc1cc(NC(=O)c2c(C)sc3ncnc(N4CCCC4)c23)ccc1F` were 33% and -0.61.
Taken in the same sequence, the figures for `Cc1ncsc1CCC(=O)Nc1ccccc1N1C(=O)N[C@@H](C)C1=O` were -7% and 1.03.
Turning to `COc1ccc(N2CCN(C(=O)c3csc(C(C)(C)C)n3)CC2)nc1`, the “% Inhibition” value is listed as -16% and the Z score was 1.58.
`Cc1cc(NC(=O)N2CCC=C(F)C2)ccc1-n1nnnc1C(C)C`: the “% Inhibition” value is given as -11% and the Z score was 1.19.
As to `CC(C)c1ccc(CN2CCC[C@@]3(CCN(c4ncccn4)C3)C2=O)cc1`, the “% Inhibition” value is listed as -11% and the Z score came to 1.4.
The like results for `CN(C)CCCN(C(=O)c1ccc(S(=O)(=O)N2CCCCCC2)cc1)c1nc2cc3c(cc2s1)OCCO3` were, in that order, 17% and -2.1.
For `CC(C)N(C)Cc1nc(-c2cc3c([nH]c2=O)[C@@H](C)CCC3)no1`, the “% Inhibition” value is -14% and the Z score is reported as 2.58.
Turning to `COC(=O)C[C@H]1CCCN1C(=O)NCCc1c[nH]c2ccc(F)cc12`, the “% Inhibition” value came out at 1% and the Z score was -0.16.
As for `CC(C)c1ncc(C(=O)Nc2nn(C)cc2C#N)s1`, the “% Inhibition” value was -9% and the Z score amounted to 0.82.
On to `CCCN(Cc1cc(=O)[nH]c2c(C)cc(C)cc12)C(=O)Nc1ccc2c(c1)OCO2`, for which the “% Inhibition” value turned out to be 29% and the Z score was -3.94.
Regarding `Cc1ncccc1C(=O)N[C@@](C)(C(N)=O)c1cccc(Cl)c1`, the “% Inhibition” value came out at 4% and the Z score is reported as -0.5.
Turning to `Cc1oc2c(c1C(=O)NCCn1cncn1)C(=O)CCC2`, the “% Inhibition” value is -7% and the Z score was found to be 1.4.
Regarding `CN(CCn1ccnc1)[C@H]1CCN(Cc2ccccc2)C1`, the “% Inhibition” value was -8% and the Z score stood at 1.44.
As to `CC1CN(C(=O)CCn2cnc3ccccc3c2=O)CC(C)N1` (stereo unspecified), the “% Inhibition” value is recorded as -12% and the Z score is 1.82.
In the case of `COc1ccc(OC)c(Nc2cc(C)nc3nnnn23)c1`, the “% Inhibition” value is 37% and the Z score is -4.93.
Consider `CC1=C(C)CN(C(=O)Nc2cnc(C)nc2)CC1`, for which the “% Inhibition” value was -17% and the Z score came to 1.53.
On to `Cc1ccsc1C(=O)Nc1ccc2c(c1)CCN2`, for which the “% Inhibition” value is -14% and the Z score is recorded as 1.45.
Regarding `COc1ccccc1-c1cc(C(=O)N2CCN(Cc3ccccc3)CC2)nc2cc(-c3ccccc3)nn12`, the “% Inhibition” value came out at 1% and the Z score was -0.12.
In the case of `C[C@@H]1CC(=O)N[C@H](C(=O)N(Cc2ccncc2)Cc2cccs2)C1`, the “% Inhibition” value is recorded as 2% and the Z score is listed as -0.36.
Consider `Cc1oc2ncnc(NC(=O)C3CC3c3ccco3)c2c1C` (stereo unspecified), for which the “% Inhibition” value is given as -11% and the Z score came to 1.5.
With `Cc1nn(S(=O)(=O)N2CCCC2)c(C)c1Br`, the “% Inhibition” value was -8% and the Z score stood at 1.03.
Regarding `CCc1cccc2c(C3=CCN(c4ccc5nnc(C(F)(F)F)n5n4)CC3)c[nH]c12`, the “% Inhibition” value came out at 11% and the Z score is recorded as -2.04.
The like results for `O=C(C1CCC1)N1C[C@@H]2COc3ccccc3C[C@]2(CO)C1` were, in that order, -5% and 0.74.
On to `OC(CC#CCN1CCN(CC#CCC(O)(c2ccccc2)c2ccccc2)CC1)(c1ccccc1)c1ccccc1`, for which the “% Inhibition” value is given as -4% and the Z score was found to be 0.56.
For `Cc1cccc(/N=C(\NC(=O)c2ccccc2)N2CCN(c3cc(C)ccc3C)CC2)c1`, the “% Inhibition” value was 0% and the Z score is reported as -0.05.
In the case of `COc1cc(OC)c2[nH]c(=O)c(CCNS(=O)(=O)c3c(C)n[nH]c3C)cc2c1`, the “% Inhibition” value is given as 5% and the Z score is given as -0.63.
Consider `Cc1cc2c(cc1S(=O)(=O)N1CCC[C@H]1C(=O)Nc1ccc3c(c1)OCCO3)OCC(=O)N2`, for which the “% Inhibition” value was found to be 3% and the Z score was -0.57.
Turning to `CC(C)Cc1nnc(C[C@H]2CCN(C(=O)c3cnccn3)C2)o1`, the “% Inhibition” value was -2% and the Z score is recorded as 0.36.
The like results for `CCNC(=O)N1CCCC[C@@]1(C)c1noc(-c2ccc(F)cc2)n1` were, in that order, 38% and -0.98.
Regarding `Cc1nc(C(=O)NCc2cn[nH]c2C)c(C)o1`, the “% Inhibition” value is -16% and the Z score worked out at 2.05.
On to `C=CCN1CC[C@H](n2cnc(C(C)C)cc2=O)C1=O`, for which the “% Inhibition” value was determined as 0% and the Z score is given as 0.06.
Consider `CC(=O)NC(Cc1nc(C(C)n2ccnc2)no1)c1ccc(C)cc1` (stereo unspecified), for which the “% Inhibition” value is -8% and the Z score is on record as 1.23.
For `Cc1ccc(OCc2cccc(C(=O)N3CC(C)NC(C)C3)c2)cn1` (stereo unspecified), the “% Inhibition” value was determined as 14% and the Z score was -2.06.
For `Cc1cc(N(C)Cc2ccc3c(c2)OCO3)nc(N)n1`, the “% Inhibition” value is given as 11% and the Z score was -0.96.
The like results for `O=C(NCC1CCOCC1)Nc1ccccc1` were, in that order, -3% and 0.49.
For `Cc1ccc(CNS(=O)(=O)CC#N)c(OC2CCCCC2)c1`, the “% Inhibition” value was -18% and the Z score came out at 2.31.
On to `C[C@@H](CNC(=O)CCc1cccs1)N1CCCC1`, for which the “% Inhibition” value is on record as -7% and the Z score is reported as 0.93.
Turning to `Cc1noc(C)c1C(=O)N1Cc2c(-c3nc(C4CC4)no3)nn(C)c2C1`, the “% Inhibition” value stood at 6% and the Z score is on record as -0.93.
The like results for `CN1CCN(Cc2ccc3c(c2)OCCO3)C[C@]12CCNC(=O)CC2` were, in that order, -17% and 1.86.
For the compound `c1coc(-c2ncc(-c3cn(CCc4cnc5ccccn45)nn3)cn2)c1`, the “% Inhibition” value is recorded as -19% and the Z score was found to be 3.3.
On to `O=C(c1cccc(C(=O)N2CCCCC2)n1)N1CCCCC1`, for which the “% Inhibition” value was -6% and the Z score was 0.83.

The values are drawn from ChEMBL document CHEMBL4888484, “Replenishing the malaria drug discovery pipeline: Screening and hit evaluation of the MMV Hit Generation Library 1 (HGL1) against asexual blood stage Plasmodium falciparum ,using a nano luciferase reporter read-out” (2022).
